Source: PubChem BioAssay AID2675 (National Center for Advancing Translational Sciences (NCATS), 2010)
About 100 (0.036%) of roughly 280,000 compounds were called active. Inconclusive results, whose numbers are uncertain, are shown with a selection of clear calls. Calls come from the whole dose curve; as a rule, active = well fitted inhibition curve with a large enough effect in the signal ratio, with a control signal flat (not every such curve was filed as active); inconclusive = small, poorly fitted or top-dose-only effect, or effect the other way, or a change in a side signal; inactive = no such curve, though single readings can be large or run the other way; the % refers to the signal ratio. A potency beside an inconclusive call is a rough fit, not a confirmed value. “Side channel” marks fits to a control or component signal instead of the main read-out.

The compounds below were run against Muscleblind-like protein 1 (Homo sapiens) (UniProt Q9NR56) (assay: qHTS Assay for Inhibitors of MBNL1-poly(CUG) RNA binding). Conditions: TR-FRET MBNL1-His/biotin-(CUG)12 binding, 665/545 ratio; activity change, negative = inhibition: at 57.5 µM (top of the series).
Procedure, shortened: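 TR-FRET readout: Ex 340 nm, 665/545 nm emission ratio, normalized to buffer-only (basal) and MBNL1-(CUG)12 controls. Complex of MBNL1-His with Biotin-(CUG)12, compounds 92 nM–58 uM, incubated 60 min at room temperature.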
% is set by controls: 0 for no effect and ±100 for the full control effect; potency is the fitted concentration of half-maximal effect; tags give direction and shape of the fitted curve or compound fluorescence and quenching.

UniProt Q9NR56, sequence (Q9NR56 whole entry, looked up): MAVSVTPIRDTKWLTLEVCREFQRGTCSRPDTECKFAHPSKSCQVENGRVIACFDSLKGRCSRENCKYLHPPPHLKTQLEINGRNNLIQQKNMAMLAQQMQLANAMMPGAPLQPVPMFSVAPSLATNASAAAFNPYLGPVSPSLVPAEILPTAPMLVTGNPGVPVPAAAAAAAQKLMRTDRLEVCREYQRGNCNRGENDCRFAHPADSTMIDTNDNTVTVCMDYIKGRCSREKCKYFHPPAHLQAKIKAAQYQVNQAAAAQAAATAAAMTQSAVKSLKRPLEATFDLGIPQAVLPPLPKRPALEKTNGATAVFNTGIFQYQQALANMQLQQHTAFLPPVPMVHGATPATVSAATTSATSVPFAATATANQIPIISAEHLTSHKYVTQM

Row | SMILES | Potency | activity change, negative = inhibition
1 | O=C(N/C(=C\c1ccc([N+](=O)[O-])cc1)C(=O)N1CCOCC1)c1ccccc1 | inconclusive: 14.1 µM [quencher, side channel, partial curve] | 
2 | CCC1OC23CCCCC2C(C#N)(C(=N)O3)C1(C#N)C#N (centres undefined) | inconclusive: 15.8 µM [quencher, side channel, partial curve] | 
3 | CC1=C([N+](=O)[O-])C(c2ccccc2Cl)NC(=O)N1C (centres undefined) | inconclusive: 31.6 µM [quencher, side channel, partial curve] | 
4 | O=C1/C(=C/c2ccc(O)c(O)c2)SC(=S)N1Nc1ccccc1 | inconclusive: 31.6 µM [quencher, partial curve] | 
5 | COc1cc(N=Nc2ccccc2C(=O)O)ccc1O | inconclusive: 20 µM [quencher, side channel, partial curve] | 
6 | CCNc1nc(NCC)nc(N/N=C/c2ccc(N(C)C)cc2)n1 |  | inactive: 8.14%
7 | Cc1cc(/C=N/Nc2ccc([N+](=O)[O-])cn2)c(C)n1-c1ccccc1 | inconclusive: 14.1 µM [quencher, side channel, partial curve] | 
8 | O=C(NNC(=O)c1ccc2nonc2c1)Nc1ccc(Cl)cc1 | inconclusive: 14.1 µM [quencher, side channel, partial curve] | 
9 | NC(=O)c1c(N)sc(=S)n1CC1CCCO1 (centres undefined) | inconclusive: 15.8 µM [quencher, side channel, partial curve] | 
10 | Cc1cc(C(=O)N/N=C2/CC(C)CC(C)(C)C2)c(C)o1 (centres undefined) |  | inactive: 1.25%
11 | COc1ccc(/C=C2\SC(=S)N(CCCC(=O)N3CCN(C)CC3)C2=O)cc1 | inconclusive: 12.6 µM [quencher, side channel, partial curve] | 
12 | N/C(=N\OC(=O)CCC1CCCC1)c1ccccn1 | inconclusive: 39.8 µM [quencher, side channel, single point] | 
13 | O=c1[nH]c(Nc2ccccc2)cc2ccccc12 | inconclusive: 7.94 µM [quencher, single point] | 
14 | O=C(COc1ccc(Cl)cc1)NCCNc1ccc([N+](=O)[O-])cc1 | inconclusive: 15.8 µM [quencher, side channel, partial curve] | 
15 | CCOC(=O)/C(=N\Nc1ccc(Br)cc1)N1CC(C)OC(C)C1 (centres undefined) |  | inactive: -9.85%
16 | Cn1cc(SCC(=O)NCC2CCCO2)c2ccccc21 (centres undefined) | inconclusive: 0.562 µM [quencher, side channel, single point] | 
17 | CC(=O)Nc1cccc(Oc2ncccc2[N+](=O)[O-])c1 | inconclusive: 11.2 µM [quencher, side channel, partial curve] | 
18 | CCCn1c(O)c(N=NC(=O)CNC(=O)/C=C/c2ccc(OC)cc2)c2ccccc21 | inconclusive: 3.55 µM [quencher, full curve] | 
19 | CCc1cc(=O)oc2cc(OC(C)=O)cc(OC(C)=O)c12 |  | inactive: 50.5%
20 | O=c1cc2c(nn1Cc1cccc([N+](=O)[O-])c1)-c1ccccc1CC2 |  | inactive: 13%
21 | O=C(NCc1cccnc1)c1ccc([N+](=O)[O-])cc1 | inconclusive: 10 µM [quencher, side channel, partial curve] | 
22 | COc1ccccc1-c1nnc2sc(COc3ccc(F)cc3)nn12 |  | inactive: -13%

Row | SMILES | Potency | activity change, negative = inhibition
23 | COC(=O)c1ccncc1C(=O)Nc1ccc(F)cc1 | inconclusive: 8.91 µM [quencher, side channel, full curve] | 
24 | COc1cc(-c2nnco2)cc(OC)c1OC | inconclusive: 0.447 µM [inhibitor, full curve, poor fit] | 
25 | CCCOc1ccc(N2C(=O)CC(NCc3ccncc3)C2=O)cc1 (centres undefined) | inconclusive: 39.8 µM [quencher, side channel, single point] | 
26 | CCCCNC(=S)NCc1ccc2[nH]c3c(c2c1)CCCC3 |  | inactive: -11.9%
27 | COc1ccc(C2=NS(=O)(=O)N(C)C(C(=O)N3CCOCC3)=C2)cc1OC | inconclusive: 28.2 µM [quencher, side channel, partial curve] | 
28 | Cn1nc(CC(=O)Nc2ccc3c(c2)OCCO3)c2ccccc2c1=O |  | inactive: 1.15%
29 | CSCCC(NC(=O)c1cc([N+](=O)[O-])cc([N+](=O)[O-])c1)c1nc2ccccc2[nH]1 (centres undefined) | inconclusive: 2.82 µM [quencher, side channel, full curve] | 
30 | O=c1oc2c(CN3CCN(CCO)CC3)c(O)ccc2cc1-c1ccccn1 | inconclusive: 15.8 µM [quencher, side channel, partial curve] | 
31 | O=C(NC(=S)NC1C2CC3CC(C2)CC1C3)C12CC3CC(CC(C3)C1)C2 (centres undefined) |  | inactive: -3.93%
32 | O=C(CSc1n[nH]c(-c2cccnc2)n1)Nc1ccccc1[N+](=O)[O-] | inconclusive: 14.1 µM [quencher, side channel, partial curve] | 
33 | O=C(OCc1ccc([N+](=O)[O-])cc1)c1cc(=O)c2ccccc2o1 | inconclusive: 15.8 µM [quencher, side channel, partial curve] | 
34 | CC1=C/C(=N\Nc2ccccc2[N+](=O)[O-])CC(C)(C)C1 |  | inactive: 16.7%
35 | O=C(NCc1ccccc1)c1ccc(CN2CCC(Cc3ccccc3)CC2)cc1 | inconclusive: 100 µM [inhibitor, partial curve] | 
36 | O=C(N/N=C/C=C\c1ccco1)c1cccnc1 | inconclusive: 25.1 µM [quencher, side channel, partial curve] | 
37 | CCOC(=O)C(C)Sc1nc(-c2cccs2)ccc1C#N (centres undefined) | inconclusive: 20 µM [quencher, single point] | 
38 | O=C(OCc1ccccc1)C1CCCN1C(=O)c1ccccc1[N+](=O)[O-] (centres undefined) | inconclusive: 11.2 µM [quencher, side channel, partial curve] | 
39 | N#CC(Sc1ccccn1)c1ccc(Cl)cc1 (centres undefined) | inconclusive: 25.1 µM [quencher, side channel, partial curve] | 
40 | Cc1cccc(C)c1OCCNC(=O)C(=O)NCc1ccco1 | inconclusive: 3.16 µM [quencher, side channel, full curve] | 
41 | O=[N+]([O-])c1cccc(C=Nc2cccc3ccccc23)c1O | inconclusive: 10 µM [quencher, side channel, partial curve] | 
42 | C=CCNC(=O)/C(C#N)=C/c1c(N2CCCCCC2)nc2ccccn2c1=O | inconclusive: 15.8 µM [quencher, side channel, partial curve] | 
43 | CCOc1ccc(OCCCC(=O)O)cc1 |  | inactive: 0.733%
44 | CCOC(=O)c1ccc(-c2ccc(/C=N/NC(=O)Cc3nnc(N)s3)o2)cc1 | inconclusive: 3.16 µM [quencher, side channel, full curve] | 

Row | SMILES | Potency | activity change, negative = inhibition
45 | CCCCN(C)C(=S)Nc1ccsc1C(=O)OC |  | inactive: 2.49%
46 | Cc1cccc(OCC(=O)NNC(=O)c2ccc([N+](=O)[O-])cc2)c1 | inconclusive: 12.6 µM [quencher, side channel, partial curve] | 
47 | Cc1ccc(-c2cc(C(=O)NCCc3ccccn3)c3ccccc3n2)c(C)c1 | inconclusive: 0.282 µM [fluorescent, side channel, full curve] | 
48 | O=[N+]([O-])c1ccc(NCCNS(=O)(=O)c2ccccc2)c(C(F)(F)F)c1 | inconclusive: 31.6 µM [quencher, single point] | 
49 | Cc1nc2c(ccc3nc(NC(=O)Cc4ccccc4)sc32)s1 |  | inactive: -2.86%
50 | COc1ccccc1/C=C/C=N/NC(=O)c1cnccn1 | inconclusive: 22.4 µM [quencher, side channel, partial curve] | 
51 | COc1ccc(C(=O)Nc2nc3ccc(S(C)(=O)=O)cc3s2)cc1 | inconclusive: 25.1 µM [fluorescent, side channel, partial curve] | 
52 | O=C(CNC(=O)c1ccccc1Cl)N/N=C/C=C/c1ccccc1 | inconclusive: 25.1 µM [quencher, side channel, single point] | 
53 | COc1ccc(N/C=C/C(=O)c2ccc(OC)c(OC)c2)cc1 | inconclusive: 12.6 µM [quencher, side channel, partial curve] | 
54 | N#Cc1c(N)oc(-c2ccccc2)c1-c1ccccc1 | inconclusive: 20 µM [quencher, side channel, partial curve] | 
55 | CN(C)CCN(Cc1ccco1)S(=O)(=O)c1ccc(-c2ccc(=O)[nH]n2)s1 | inconclusive: 15.8 µM [quencher, side channel, partial curve] | 
56 | O=C(CNC(=O)c1cccs1)N/N=C/c1cccc(Cl)c1 | inconclusive: 28.2 µM [quencher, side channel, partial curve] | 
57 | O=C(NC(=S)NCCc1ccc(Cl)cc1)c1ccco1 |  | inactive: 5.67%
58 | O=C(Cn1cc(SCc2cccc(Cl)c2)c2ccccc21)N1CCOCC1 |  | inactive: -13.5%
59 | COc1cc(C(=O)Nc2ccc(C)cn2)c([N+](=O)[O-])cc1OC | inconclusive: 25.1 µM [quencher, side channel, partial curve] | 
60 | CC(=O)NCN1CCN(CNC(C)=O)CC1 |  | inactive: -4.82%
61 | CC(=NCc1cccnc1)C1=C(O)c2ccccc2C1=O | inconclusive: 15.8 µM [quencher, side channel, partial curve] | 
62 | CC1=C(Nc2ccc(C(=O)O)cc2)C(=O)c2ccccc2C1=O | inconclusive: 7.94 µM [quencher, side channel, partial curve] | 
63 | O=C(NCc1ccco1)c1ccc2c(c1)C(=O)N(Cc1ccccc1)C2=O | inconclusive: 1.12 µM [quencher, side channel, full curve] | 
64 | COc1ccc(CCn2c(=N)c(C(=O)NCC3CCCO3)cc3c(=O)n4cccc(C)c4nc32)cc1 (centres undefined) | inconclusive: 2.51 µM [quencher, side channel, full curve] | 
